This note sets out measurements from the supplement of paper PMC3334620.

In all, about 33,000 sequences were measured (“E-score (-0.5 to 0.5)”: median about -0.043, highest 2% from about 0.37 on). The list shows a part of the results.

For the assay, the target named is T1, Upc2 (UniProt Q12151).
T1 sequence: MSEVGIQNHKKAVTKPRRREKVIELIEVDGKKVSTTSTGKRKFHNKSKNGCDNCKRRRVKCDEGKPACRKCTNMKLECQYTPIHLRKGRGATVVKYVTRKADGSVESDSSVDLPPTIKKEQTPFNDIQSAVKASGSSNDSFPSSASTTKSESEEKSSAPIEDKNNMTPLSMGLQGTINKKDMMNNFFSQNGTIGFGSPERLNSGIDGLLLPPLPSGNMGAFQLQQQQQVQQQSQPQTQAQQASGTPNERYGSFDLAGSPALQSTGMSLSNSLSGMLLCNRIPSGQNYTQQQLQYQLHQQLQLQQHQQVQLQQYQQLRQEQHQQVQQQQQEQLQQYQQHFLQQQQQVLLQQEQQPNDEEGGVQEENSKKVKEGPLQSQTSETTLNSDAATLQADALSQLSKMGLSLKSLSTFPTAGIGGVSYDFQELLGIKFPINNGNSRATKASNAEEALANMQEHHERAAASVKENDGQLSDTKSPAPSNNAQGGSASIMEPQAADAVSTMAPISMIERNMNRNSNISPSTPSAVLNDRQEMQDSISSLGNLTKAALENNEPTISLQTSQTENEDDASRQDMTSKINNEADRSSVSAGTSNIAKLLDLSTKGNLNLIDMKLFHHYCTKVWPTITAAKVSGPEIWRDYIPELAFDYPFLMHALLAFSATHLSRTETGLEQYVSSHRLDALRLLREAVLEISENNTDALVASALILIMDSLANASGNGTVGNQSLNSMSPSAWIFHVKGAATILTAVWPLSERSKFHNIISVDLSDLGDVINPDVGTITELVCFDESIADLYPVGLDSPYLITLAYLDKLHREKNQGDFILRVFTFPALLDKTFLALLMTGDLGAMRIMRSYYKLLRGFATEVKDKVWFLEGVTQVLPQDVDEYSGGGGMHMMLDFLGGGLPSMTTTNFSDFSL
Description: PBM E-score (8-mer binding enrichment) (E-score (-0.5 to 0.5)); higher = stronger / more preferred TF binding; most listed sequences are background and not binding sites. To be noted: protein concentration: 200 nM; construct: GST-full length. The method, then:
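Universal 'all 10-mer' protein binding microarrays (Agilent AMADID 015681) probed with GST-tagged S. cerevisiae TFs (full-length or DBD) made by in vitro transcription/translation (PURExpress), about 100-200 nM. Bound TF was detected with fluorescent anti-GST. Each ungapped 8-mer (which stands for itself and its reverse complement) is scored by the PBM enrichment score (E-score), a modified Wilcoxon-Mann-Whitney statistic from -0.5 to +0.5, computed with the Universal PBM Analysis Suite. Scale: above 0.35 generally sequence-specific binding.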
For the sequence TAGCGAAA, the “PBM E-score” value came out at 0.18.
As for ACAGCTGT, the “PBM E-score” value was -0.131.
Regarding TCGGCCGA, the “PBM E-score” value is -0.194.
As for ATCAAAGC, the “PBM E-score” value was -0.0926.
As for AGACACGC, the “PBM E-score” value was 0.104.
Consider AATGGTAT, for which the “PBM E-score” value is -0.0952.
The same measure for GAGACGCC: -0.0116; for GTAACTCA: -0.0406; for TCCAGACA: -0.0333.
As to GACTTGTA, the “PBM E-score” value is -0.0478.
AGCCCAGG: the “PBM E-score” value is -0.379.
With CCTCCTCA, the “PBM E-score” value is -0.168.
As to AACTGAGT, the “PBM E-score” value was -0.127.
For the sequence AAAGTGCA, the “PBM E-score” value was -0.0392.
Consider ACCCATAC, for which the “PBM E-score” value amounted to 0.145.
The same measure for ACTGCCCT: -0.145.
With AAAAAGGC the figure was -0.0109; with CAAACGGA, 0.318; with ACACTGCG, 0.0863.
Turning to CTACCTCC, the “PBM E-score” value was 0.109.
Turning to AAGGAGGG, the “PBM E-score” value is -0.164.
As to CGACGGCC, the “PBM E-score” value came to 0.15.
For ACGAGCCG, the “PBM E-score” value is 0.371.
As to ACAAGCTA, the “PBM E-score” value is -0.00666.
Turning to ACTAGGTC, the “PBM E-score” value came to 0.0604.
As to GATCGCCC, the “PBM E-score” value stood at 0.0445.
With CGATTTAC, the “PBM E-score” value was 0.209.
The same measure for AATGTTTA: -0.011; for ATTACCCA: -0.113.
As to TCTTATCA, the “PBM E-score” value came out at 0.0884.
Consider ATGCAGCA, for which the “PBM E-score” value was -0.0711.
The same measure for CAACGGTG: 0.0103; for CACCGCGA: -0.0507.
As to ACGTCAAT, the “PBM E-score” value was determined as 0.0234.
For the sequence AAAATTTC, the “PBM E-score” value is -0.00276.
With ACGGGGTG the figure was 0.155.
With TGAATTAA the figure was 0.0996; with AGATTGGG, -0.164.
For the sequence CCTTCACC, the “PBM E-score” value is -0.241.
The same measure for AGGAATTC: -0.135; for AAAACGCT: -0.0211.
The same measure for CAACTATA: 0.143; for ACCGTCCA: -0.0792.
The same measure for CCTCAGTC: -0.169.
Consider GATGAAAA, for which the “PBM E-score” value worked out at 0.0354.
On to CTTCAACA, for which the “PBM E-score” value is -0.039.
Take AAATGCTC: the “PBM E-score” value is -0.0466.
As to CTTCTTAA, the “PBM E-score” value stood at 0.0092.
With AGGGCGCG, the “PBM E-score” value was -0.0167.
The same measure for AGCAATTC: -0.029; for TGGGCTAA: -0.0401.
In the case of AACGGTCG, the “PBM E-score” value is 0.28.
In the case of CCTCGGCG, the “PBM E-score” value worked out at 0.114.
AGGAGCCC: the “PBM E-score” value is -0.0823.
The same measure for AAGTCGAC: -0.00442; for AAAACACA: -0.0496; for AAAAAAAG: -0.0152.
As for ATTCCATA, the “PBM E-score” value is 0.0936.
For AAACTCAG, the “PBM E-score” value is -0.173.
As to CGCCCGAA, the “PBM E-score” value was 0.0251.
Take CCACCATC: the “PBM E-score” value was -0.293.
For ACCAGGCT, the “PBM E-score” value is -0.172.
Regarding GGTTGGAA, the “PBM E-score” value was -0.0677.
With TGCCCACA, the “PBM E-score” value was -0.226.
With GCCCCGTA the figure was 0.305.
Consider GGCCACTA, for which the “PBM E-score” value is -0.226.
For the sequence CAACCCAA, the “PBM E-score” value was -0.0577.
As to TCCTACAA, the “PBM E-score” value is -0.00717.
With AGTCGCAG the figure was -0.0754; with GAAAGTTA, 0.0498.
CATGAGCG: the “PBM E-score” value is 0.0815.
With GCCCTAGA the figure was -0.0739; with GACCTATC, -0.124; with AATAAACT, -0.0754.
The same measure for AAGCACGC: -0.0422; for ATGAGTAG: -0.127; for ACGTTGTC: -0.0308.
With CGAGACAG the figure was 0.0945; with CAAGAAAC, -0.0795.
On to ATGCGGGC, for which the “PBM E-score” value was -0.0472.
With CGGTGTTA the figure was 0.101; with ACATCAGT, -0.141; with GTCCTGCA, -0.262.
The same measure for ACATTTCG: 0.0532; for ATGGTCCG: 0.0316; for CCCCCCGA: -0.231.
